The results in this text go back to patent publication US20200354427A1 (Eli Lilly, published 2020).

Experiment [1] concerns the target T1, human RANKL (receptor activator of nuclear factor kappa-B ligand) (human, UniProt O14788 140-317, limits assumed).
T1 construct: Soluble analyte in SPR and stimulus in the reporter assay; also called hRANKL
T1 sequence (looked up): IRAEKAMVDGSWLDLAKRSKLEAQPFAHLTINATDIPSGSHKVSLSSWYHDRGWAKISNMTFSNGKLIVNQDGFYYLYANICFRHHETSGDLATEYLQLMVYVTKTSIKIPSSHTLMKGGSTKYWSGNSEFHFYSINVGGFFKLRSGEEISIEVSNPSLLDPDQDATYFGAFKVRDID
The experiment is described as follows: SPR (Biacore 2000), fusion compound captured on protein A, RANKL as analyte, 25 C, 1:1 model, n=4. As for the experimental part:
(§1) A CM5 chip (Biacore, p/n.BR-100530) containing immobilized protein A (generated using standard NHS-EDC amine coupling) on all four flow cells (Fc) is used to employ a capture methodology. Fusion compound samples are prepared at 2 μg/mL by dilution into running buffer. Human and murine RANKL samples, respectively, are prepared at final concentrations starting at 5 nM and using two-fold serial dilutions (in running buffer) for each cycle.
(§2) Each analysis cycle consists of (1) capturing antibody samples on separate flow cells (Fc2 and Fc3); (2) injection of each human and murine RANKL concentration, respectively, over all Fc at 100 μL/min for 150 seconds followed by return to buffer flow for 1.800 seconds to monitor dissociation phase; (3) regeneration of chip surfaces with injection of 1.0 mM glycine, pH 1.5, for 120 seconds at 5 μL/min over all cells; and (5) equilibration of chip surfaces with a 10 μL (60-sec) injection of HBS-EP+. Data are processed using standard double-referencing and fit to a 1:1 binding model using Biacore 2000 Evaluation software, version 2.0.3, to determine the association rate (kₒₙ, M⁻¹s⁻¹ units), dissociation rate (koff, s⁻¹ units), and Rₘₐₓ (RU units). The equilibrium dissociation constant (KD) is calculated from the relationship KD=koff/kₒₙ, and is in molar units.
For orientation: In SPR one partner is held on a chip, and binding of the other changes the refractive index at the surface.

The target of the next experiment is T2, murine RANKL (murine, UniProt O35235 139-316, limits assumed).
T2 construct: Soluble analyte in SPR
T2 sequence (looked up): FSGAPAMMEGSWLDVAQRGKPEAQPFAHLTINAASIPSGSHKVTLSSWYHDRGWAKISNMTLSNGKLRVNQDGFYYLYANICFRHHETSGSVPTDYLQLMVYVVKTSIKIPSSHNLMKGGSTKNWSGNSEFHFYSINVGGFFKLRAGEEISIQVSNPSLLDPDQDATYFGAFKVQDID
The experiment in a line: SPR (Biacore 2000), fusion compound captured on protein A, RANKL as analyte, 25 C, 1:1 model, n=1. As for the experimental part: as §1, §2

The target in experiment [2] is T3, PTH receptor (PTHR1 receptor) endogenously expressed by rat osteosarcoma UMR-106 cells (rat, UniProt P25961 27-591).
T3 sequence (looked up): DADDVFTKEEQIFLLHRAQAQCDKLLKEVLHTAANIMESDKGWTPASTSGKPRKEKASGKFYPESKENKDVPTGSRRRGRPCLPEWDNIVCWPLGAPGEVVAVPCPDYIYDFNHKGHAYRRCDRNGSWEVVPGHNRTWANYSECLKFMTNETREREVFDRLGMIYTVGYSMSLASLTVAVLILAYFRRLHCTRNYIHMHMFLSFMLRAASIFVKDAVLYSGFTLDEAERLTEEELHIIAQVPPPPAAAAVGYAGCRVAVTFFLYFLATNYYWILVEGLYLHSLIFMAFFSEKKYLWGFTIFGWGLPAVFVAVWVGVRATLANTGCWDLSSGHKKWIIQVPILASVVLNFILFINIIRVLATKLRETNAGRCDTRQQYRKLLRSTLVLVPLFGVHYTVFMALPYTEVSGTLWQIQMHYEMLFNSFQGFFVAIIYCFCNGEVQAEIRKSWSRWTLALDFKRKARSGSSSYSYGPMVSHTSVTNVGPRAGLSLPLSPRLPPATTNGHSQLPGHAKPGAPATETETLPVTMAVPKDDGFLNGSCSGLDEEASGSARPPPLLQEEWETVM
The experiment is described as follows: cell-based or functional assay.

Experiment [3] has as its target T1, human RANKL (receptor activator of …). The experiment is described as follows: cell-based or functional assay.

B1: exemplified fusion compound (parathyroid hormone-anti-RANKL antibody fusion compound of Table 1) (other)
heavy: SVSEIQLMHNLGKHLNSMERVEWLRKKLQDVHNFGGGGSGGGGSGGGGSQVQLVQSGAEVKKPGSSVKVSCKASGYAFTNYYIEWVRQAPGQGLEWMGVINPGWGDTNYNEKFKGRVTITADKSTSTAYMELSSLRSEDTAVYYCARRDTAHGYYALDPWGQGTTVTVSSASTKGPSVFPLAPCSRSTSESTAALGCLVKDYFPEPVTVSWNSGALTSGVHTFPAVLQSSGLYSLSSVVTVPSSSLGTKTYTCNVDHKPSNTKVDKRV[human IgG4 Fc with S228P F234A L235A (EU numbers) not written out]
light: DIQMTQSPSSLSASVGDRVTITCKASQNVGTNVAWYQQKPGKAPKLLIYSASYRYSGVPSRFSGSGSGTDFTLTISSLQPEDFATYYCQQYWDYPLTFGGGTKVEIKRTVAAPSVFIFPPSDEQLKSGTASVVCLLNNFYPREAKVQWKVDNALQSGNSQESVTEQDSKDSTYSLSSTLTLSKADYEKHKVYACEVTHQGLSSPVTKSFNRGEC
modifications: glycosylated at asparagine residue 347 of SEQ ID NO: 1
notes: PTH(1-34) joined by a (G4S)3 linker to the N-terminus of each heavy chain of an IgG4 anti-RANKL mAb; It has two first and two second polypeptides; The signal peptides are cleaved after translation; also called Exemp. fusion cmpd
Turning to B1, in experiment [1], binding was put at a Kd of 0.00482 nM; the off-rate constant (koff) (commonly a measure of how fast the partners let go of each other) worked out at 1.69e-05 s⁻¹; the kon – broadly, the rate constant with which the complex forms – came to 3.5e+06 M⁻¹ s⁻¹. Moreover, in the experiment with murine RANKL, the affinity, expressed as Kd, was 0.00837 nM; the off-rate constant (koff) was 9.69e-05 s⁻¹; the kon was 1.16e+07 M⁻¹ s⁻¹. Besides, the “EC50 (nM); PTHR1 activation, CRE-regulated luciferase luminescence in UMR-106 cells” value in experiment [2] is 6.6 nM. In addition, the “IC50 (nM) hRANKL; neutralization of RANKL-induced NF-kB driven luciferase luminescence” value in experiment [3] was 0.067 nM.
